{"source": "paper PMC5700166", "note": "The entries are a selection whose mix differs from that of the whole data set. The list includes weakly bound sequences.", "data": [{"target": "T1, GST-Aq-NF-kB (UniProt A9Y5G7)", "T1 sequence": "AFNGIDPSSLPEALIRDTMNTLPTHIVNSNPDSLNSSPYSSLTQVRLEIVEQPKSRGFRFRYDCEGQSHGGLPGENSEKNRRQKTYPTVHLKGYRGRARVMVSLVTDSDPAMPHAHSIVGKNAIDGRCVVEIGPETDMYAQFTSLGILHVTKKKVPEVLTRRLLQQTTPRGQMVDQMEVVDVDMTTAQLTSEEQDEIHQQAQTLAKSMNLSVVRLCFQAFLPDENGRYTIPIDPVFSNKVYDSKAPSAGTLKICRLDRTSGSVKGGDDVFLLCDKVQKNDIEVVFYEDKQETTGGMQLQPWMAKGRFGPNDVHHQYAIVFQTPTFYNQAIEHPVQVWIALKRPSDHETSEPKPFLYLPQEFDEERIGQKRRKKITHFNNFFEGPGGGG", "assay": "protein-binding microarray (PBM)", "settings": "PBM: ~300 nM protein, 6 mM HEPES pH 7.8, 80 mM KCl, 0.5 mM EDTA, 0.5 mM EGTA, 6% glycerol, 35 ng/ul poly-dIdC, 1% milk, 1 h, room temperature; Ap Aiptasia and Nv Nematostella (sea anemones) / Co Capsaspora / Aq Amphimedon (sponge) / Dm Drosophila / Hu human; RHD is the Rel homology domain; high values mean tight binding; most listed sequences are background and not binding sites; double strand, one strand shown", "units": {"binding signal": "z-score"}, "values": [{"sequence": "CCGATTAACATCAGATAAATTCCTGATGTTAATCGGGTCTTGATTCGCTTGACGCTGCTG", "binding signal": 0.00651}, {"sequence": "CCGATTAACATCAGATCACCACATGATGTTAATCGGGTCTTGATTCGCTTGACGCTGCTG", "binding signal": -0.247}, {"sequence": "CCGATTAACATCATCTCCAGGTCTGATGTTAATCGGGTCTTGATTCGCTTGACGCTGCTG", "binding signal": -0.391}]}]}
